Measured values: US20220251163A1 (Sinopep-Allsino Biopharmaceutical Co., Ltd., priority 2019, published 2022)
Where two headings read alike, the source gives them in different places. For part of these data: Not every detail of the peptide structures is certain; ends, links or a residue may be inferred. For part of these data: At least one compound was matched to its structure with a doubt left.

Tests used:
ob/ob mice = assay: Blood glucose reducing experiment, single subcutaneous injection in ob/ob mice; type: in vivo; conditions: ob/ob mice, 100 μg/kg single s.c.; for Blood glucose at different time after administration, 0 h: 0 h (before administration); for Blood glucose at different time after administration, 0 h / Blood glucose at different time after administration, 2 h / Blood glucose at different time after administration, 4 h / Blood glucose at different time after administration, 6 h / Blood glucose at different time after administration, 10 h / Blood glucose at different time after administration, 24 h / Blood glucose at different time after administration, 34 h / AUC0-24 h Glu: X ± s, n = 7; for AUC0-24 h Glu: blood glucose curve area within 24 h; for AUC0-24 h Glu Decrease rate: versus model control group
[1] = Effect on random weight of ob/ob mice after single subcutaneous injection; type: in vivo; conditions: 100 μg/kg single s.c., X ± s, n = 7
mGLP-1R = target: T1, mGLP-1R (Mus musculus, UniProt O35659); assay: GLP-1R agonist activity, cAMP in transfected HEK293 cells; type: cell-based
T1 construct: expressed in transfected cells; host or cells: HEK293
T1 sequence (O35659 22-463): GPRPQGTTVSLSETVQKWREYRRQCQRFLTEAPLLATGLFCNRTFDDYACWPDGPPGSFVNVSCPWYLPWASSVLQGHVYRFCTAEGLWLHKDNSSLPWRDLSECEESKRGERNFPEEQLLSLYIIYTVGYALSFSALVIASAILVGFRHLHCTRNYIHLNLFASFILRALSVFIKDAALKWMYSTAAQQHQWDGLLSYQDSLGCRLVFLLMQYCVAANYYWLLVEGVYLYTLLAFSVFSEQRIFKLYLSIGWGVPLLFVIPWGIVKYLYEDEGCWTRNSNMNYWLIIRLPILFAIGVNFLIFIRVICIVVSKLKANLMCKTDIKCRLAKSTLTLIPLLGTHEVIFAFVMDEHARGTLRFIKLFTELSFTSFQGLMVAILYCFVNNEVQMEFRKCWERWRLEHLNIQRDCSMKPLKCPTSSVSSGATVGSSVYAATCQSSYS

mGIPR = target: T2, mGIPR (Mus musculus, UniProt Q0P543); assay: GIPR agonist activity, cAMP in transfected HEK293 cells; type: cell-based
T2 construct: expressed in transfected cells; host or cells: HEK293
T2 sequence (Q0P543 19-460): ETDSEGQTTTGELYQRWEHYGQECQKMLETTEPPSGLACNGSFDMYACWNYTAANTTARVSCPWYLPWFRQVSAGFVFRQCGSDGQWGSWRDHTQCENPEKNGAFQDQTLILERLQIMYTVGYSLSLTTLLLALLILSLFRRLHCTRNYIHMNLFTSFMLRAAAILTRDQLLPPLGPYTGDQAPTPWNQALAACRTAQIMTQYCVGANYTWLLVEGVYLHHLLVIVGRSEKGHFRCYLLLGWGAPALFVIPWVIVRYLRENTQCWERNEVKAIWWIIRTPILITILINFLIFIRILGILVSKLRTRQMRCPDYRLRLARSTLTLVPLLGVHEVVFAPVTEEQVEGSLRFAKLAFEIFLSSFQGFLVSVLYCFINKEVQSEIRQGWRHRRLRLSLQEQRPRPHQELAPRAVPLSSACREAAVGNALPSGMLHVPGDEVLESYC

| Structure (SMILES) | Blood glucose at different time after administration, 0 h (ob/ob mice) [mmol/L] | Decrease rate of blood glucose at different time after administration, 2 h (ob/ob mice) [%] | Blood glucose at different time after administration, 2 h (ob/ob mice) [mmol/L] | Decrease rate of blood glucose at different time after administration, 4 h (ob/ob mice) [%] | Blood glucose at different time after administration, 4 h (ob/ob mice) [mmol/L] | Decrease rate of blood glucose at different time after administration, 6 h (ob/ob mice) [%] | Blood glucose at different time after administration, 6 h (ob/ob mice) [mmol/L] | Decrease rate of blood glucose at different time after administration, 10 h (ob/ob mice) [%] | Blood glucose at different time after administration, 10 h (ob/ob mice) [mmol/L] | Decrease rate of blood glucose at different time after administration, 24 h (ob/ob mice) [%] | Blood glucose at different time after administration, 24 h (ob/ob mice) [mmol/L] | Decrease rate of blood glucose at different time after administration, 34 h (ob/ob mice) [%] | Blood glucose at different time after administration, 34 h (ob/ob mice) [mmol/L] | Decrease rate of blood glucose at different time after administration, 48 h (ob/ob mice) [%] | AUC0-24 h Glu (ob/ob mice) [mmol·h/L] | AUC0-24 h Glu Decrease rate (ob/ob mice) [%] | Changes of random body weight at different time after administration, 0 h [1] [g] | Random body weight at different time after administration, 0 h [1] [g] | Changes of random body weight at different time after administration, 24 h [1] [g] | Random body weight at different time after administration, 24 h [1] [g] | other results |
| --- | --- | --- | --- | --- | --- | --- | --- | --- | --- | --- | --- | --- | --- | --- | --- | --- | --- | --- | --- | --- | --- |
| CC[C@H](C)[C@H](NC(=O)[C@H](CC(C)C)NC(=O)[C@H](Cc1c[nH]c2ccccc12)NC(=O)[C@H](CCC(N)=O)NC(=O)[C@@H](NC(=O)[C@H](Cc1ccccc1)NC(=O)[C@H](C)NC(=O)[C@H](CCCCNC(=O)COCCOCCNC(=O)COCCOCCNC(=O)CC[C@H](NC(=O)CCCCCCCCCCCCCCCCC(=O)O)C(=O)O)NC(=O)[C@H](CCC(N)=O)NC(=O)[C@H](C)NC(=O)[C@@H](NC(=O)[C@H](CCCCN)NC(=O)[C@H](CC(=O)O)NC(=O)[C@H](CC(C)C)NC(=O)C(C)(C)NC(=O)[C@@H](NC(=O)[C@H](CO)NC(=O)[C@H](Cc1ccc(O)cc1)NC(=O)[C@H](CC(=O)O)NC(=O)[C@H](CO)NC(=O)[C@@H](NC(=O)[C@H](Cc1ccccc1)NC(=O)[C@@H](NC(=O)CNC(=O)[C@H](CCC(=O)O)NC(=O)C1(NC(=O)[C@@H](N)Cc2ccc(O)cc2)CCC1)[C@@H](C)O)[C@@H](C)O)[C@@H](C)CC)[C@@H](C)CC)C(C)C)C(=O)N[C@@H](C)C(=O)NCC(=O)NCC(=O)N1CCC[C@H]1C(=O)N[C@@H](CO)C(=O)N[C@@H](CO)C(=O)NCC(=O)N[C@@H](C)C(=O)N1CCC[C@H]1C(=O)N1CCC[C@H]1C(=O)N1CCC[C@H]1C(=O)N[C@@H](CO)C(N)=O [ID NO: 7] | 20.64 ± 0.99 | 51.0 | 10.11 ± 0.88 | 53.6 | 9.58 ± 0.97 | 53.2 | 9.66 ± 0.84 | 52.7 | 9.76 ± 0.79 | 47.0 | 10.93 ± 0.86 | 34.4 | 13.54 ± 1.24 | 16.0 | 253.35 ± 18.65 | 50.4 | 0.0 ± 0.0 | 43.7 ± 1.0 | -1.5 ± 0.2 | 42.1 ± 1.0 | Changes of random body weight at different time after administration, 48 h [1]: -0.7 ± 0.1 g; Random body weight at different time after administration, 48 h [1]: 43.0 ± 0.9 g |
| CC[C@H](C)[C@H](NC(=O)[C@H](CC(C)C)NC(=O)[C@H](Cc1c[nH]c2ccccc12)NC(=O)[C@H](CCC(N)=O)NC(=O)[C@@H](NC(=O)[C@H](Cc1ccccc1)NC(=O)[C@H](C)NC(=O)[C@H](CCCCNC(=O)COCCOCCNC(=O)COCCOCCNC(=O)CC[C@H](NC(=O)CCCCCCCCCCCCCCCCC(=O)O)C(=O)O)NC(=O)[C@H](CCC(N)=O)NC(=O)[C@H](C)NC(=O)[C@@H](NC(=O)[C@H](CCCCN)NC(=O)[C@H](CC(=O)O)NC(=O)[C@H](CC(C)C)NC(=O)C1(NC(=O)[C@@H](NC(=O)[C@H](CO)NC(=O)[C@H](Cc2ccc(O)cc2)NC(=O)[C@H](CC(=O)O)NC(=O)[C@H](CO)NC(=O)[C@@H](NC(=O)[C@H](Cc2ccccc2)NC(=O)[C@@H](NC(=O)CNC(=O)[C@H](CCC(=O)O)NC(=O)C(C)(C)NC(=O)[C@@H](N)Cc2ccc(O)cc2)[C@@H](C)O)[C@@H](C)O)[C@@H](C)CC)CCC1)[C@@H](C)CC)C(C)C)C(=O)N[C@@H](C)C(=O)NCC(=O)NCC(=O)N1CCC[C@H]1C(=O)N[C@@H](CO)C(=O)N[C@@H](CO)C(=O)NCC(=O)N[C@@H](C)C(=O)N1CCC[C@H]1C(=O)N1CCC[C@H]1C(=O)N1CCC[C@H]1C(=O)N[C@@H](CO)C(N)=O [ID NO: 8] |  |  |  |  |  |  |  |  |  |  |  |  |  |  |  |  |  |  |  |  | EC50 (mGLP-1R; read-out: mGLP-1R EC50, HEK293 cells transfected with GLP-1R, 20 min incubation): 0.00805 nM; EC50 (mGIPR; read-out: mGIPR EC50, HEK293 cells transfected with GIPR, 20 min incubation): 0.00858 nM |
| CC[C@H](C)[C@H](NC(=O)[C@H](CC(C)C)NC(=O)[C@H](Cc1c[nH]c2ccccc12)NC(=O)[C@H](CCC(N)=O)NC(=O)[C@@H](NC(=O)[C@H](Cc1ccccc1)NC(=O)[C@H](C)NC(=O)[C@H](CCCCNC(=O)COCCOCCNC(=O)COCCOCCNC(=O)CC[C@H](NC(=O)CCCCCCCCCCCCCCCCC(=O)O)C(=O)O)NC(=O)[C@H](CCC(N)=O)NC(=O)[C@H](C)NC(=O)[C@@H](NC(=O)[C@H](CCCCN)NC(=O)[C@H](CC(=O)O)NC(=O)[C@H](CC(C)C)NC(=O)C(C)(C)NC(=O)[C@@H](NC(=O)[C@H](CO)NC(=O)[C@H](Cc1ccc(O)cc1)NC(=O)[C@H](CC(=O)O)NC(=O)[C@H](CO)NC(=O)[C@@H](NC(=O)[C@H](Cc1ccccc1)NC(=O)[C@@H](NC(=O)CNC(=O)[C@H](CCC(=O)O)NC(=O)C1(NC(=O)[C@@H](N)Cc2ccc(O)cc2)CCCC1)[C@@H](C)O)[C@@H](C)O)[C@@H](C)CC)[C@@H](C)CC)C(C)C)C(=O)N[C@@H](C)C(=O)NCC(=O)NCC(=O)N1CCC[C@H]1C(=O)N[C@@H](CO)C(=O)N[C@@H](CO)C(=O)NCC(=O)N[C@@H](C)C(=O)N1CCC[C@H]1C(=O)N1CCC[C@H]1C(=O)N1CCC[C@H]1C(=O)N[C@@H](CO)C(N)=O [ID NO: 9] | 20.24 ± 0.95 | 51.3 | 9.85 ± 0.89 | 53.0 | 9.51 ± 0.97 | 55.9 | 8.92 ± 0.86 | 55.9 | 8.93 ± 0.86 | 47.8 | 10.57 ± 0.83 | 39.4 | 12.26 ± 0.94 | 14.6 | 240.08 ± 18.97 | 53.0 | 0.0 ± 0.0 | 43.5 ± 0.8 | -1.9 ± 0.2 | 41.5 ± 0.8 | Changes of random body weight at different time after administration, 48 h [1]: -1.1 ± 0.1 g; Random body weight at different time after administration, 48 h [1]: 42.4 ± 0.9 g |
| CCCCCCCCCCCCCCCC(=O)N[C@@H](CCC(=O)NCCCC[C@H](NC(=O)[C@H](CCC(N)=O)NC(=O)[C@H](C)NC(=O)[C@@H](NC(=O)[C@H](CCCCN)NC(=O)[C@H](CC(=O)O)NC(=O)[C@H](CC(C)C)NC(=O)C1(NC(=O)[C@@H](NC(=O)[C@H](CO)NC(=O)[C@H](Cc2ccc(O)cc2)NC(=O)[C@H](CC(=O)O)NC(=O)[C@H](CO)NC(=O)[C@@H](NC(=O)[C@H](Cc2ccccc2)NC(=O)[C@@H](NC(=O)CNC(=O)[C@H](CCC(=O)O)NC(=O)C2(NC(=O)[C@@H](N)Cc3ccc(O)cc3)CCC2)[C@@H](C)O)[C@@H](C)O)[C@@H](C)CC)CCC1)[C@@H](C)CC)C(=O)N[C@@H](C)C(=O)N[C@@H](Cc1ccccc1)C(=O)N[C@H](C(=O)N[C@@H](CCC(N)=O)C(=O)N[C@@H](Cc1c[nH]c2ccccc12)C(=O)N[C@@H](CC(C)C)C(=O)N[C@H](C(=O)N[C@@H](C)C(=O)NCC(=O)NCC(=O)N1CCC[C@H]1C(=O)N[C@@H](CO)C(=O)N[C@@H](CO)C(=O)NCC(=O)N[C@@H](C)C(=O)N1CCC[C@H]1C(=O)N1CCC[C@H]1C(=O)N1CCC[C@H]1C(=O)N[C@@H](CO)C(N)=O)[C@@H](C)CC)C(C)C)C(=O)O [ID NO: 13] |  |  |  |  |  |  |  |  |  |  |  |  |  |  |  |  |  |  |  |  | EC50 (mGLP-1R; HEK293 cells transfected with GLP-1R, 20 min incubation, read-out: mGLP-1R EC50): 0.054 nM; EC50 (mGIPR; HEK293 cells transfected with GIPR, 20 min incubation, read-out: mGIPR EC50): 0.0225 nM |
